# Test results published in article PMC4336329 (PLoS ONE, 2015).
# In all, about 310,000 compounds went through this assay and about 2,200 (0.71%) showed an effect of 50% or more. The effect is printed as a negative number. This is one part of the list.
# Target: human ether-à-go-go-related gene (hERG) potassium channel (human, UniProt Q12809)
# Assay: primary screen, population patch clamp on CHO cells stably expressing hERG
# Chain of human ether-à-go-go-related gene (hERG) potassium channel (Q12809 whole entry, looked up): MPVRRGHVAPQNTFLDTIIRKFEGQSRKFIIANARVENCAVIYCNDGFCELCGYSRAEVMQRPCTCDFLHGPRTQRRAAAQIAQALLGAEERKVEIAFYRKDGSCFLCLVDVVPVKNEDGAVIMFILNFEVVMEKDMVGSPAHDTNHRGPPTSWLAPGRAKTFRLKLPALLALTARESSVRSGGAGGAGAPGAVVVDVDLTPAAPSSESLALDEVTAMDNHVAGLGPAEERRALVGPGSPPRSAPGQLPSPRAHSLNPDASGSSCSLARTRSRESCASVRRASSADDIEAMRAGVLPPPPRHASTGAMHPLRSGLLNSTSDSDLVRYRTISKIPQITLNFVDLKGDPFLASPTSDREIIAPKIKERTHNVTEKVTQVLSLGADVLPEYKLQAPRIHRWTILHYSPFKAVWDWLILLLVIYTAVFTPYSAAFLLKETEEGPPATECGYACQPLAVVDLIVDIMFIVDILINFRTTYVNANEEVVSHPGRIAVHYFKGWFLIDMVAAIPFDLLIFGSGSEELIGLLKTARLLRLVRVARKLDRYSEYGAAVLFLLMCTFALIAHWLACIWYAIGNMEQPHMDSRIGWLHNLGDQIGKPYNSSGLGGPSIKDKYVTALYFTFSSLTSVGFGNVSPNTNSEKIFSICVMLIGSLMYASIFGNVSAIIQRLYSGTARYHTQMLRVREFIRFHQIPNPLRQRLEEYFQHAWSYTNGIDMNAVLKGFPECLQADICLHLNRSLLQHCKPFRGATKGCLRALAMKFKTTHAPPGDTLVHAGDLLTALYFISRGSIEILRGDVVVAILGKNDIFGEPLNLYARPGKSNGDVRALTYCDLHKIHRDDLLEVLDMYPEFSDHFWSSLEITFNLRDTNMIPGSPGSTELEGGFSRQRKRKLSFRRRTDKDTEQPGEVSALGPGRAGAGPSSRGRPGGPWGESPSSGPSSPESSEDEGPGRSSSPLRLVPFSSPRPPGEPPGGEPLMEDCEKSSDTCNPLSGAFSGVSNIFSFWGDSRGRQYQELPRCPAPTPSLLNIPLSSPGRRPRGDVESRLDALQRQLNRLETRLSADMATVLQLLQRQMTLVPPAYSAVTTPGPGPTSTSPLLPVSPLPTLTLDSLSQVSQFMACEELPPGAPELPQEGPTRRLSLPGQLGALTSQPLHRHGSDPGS
row,SMILES,"hERG current change (%, negative = inhibition) at 1uM [%]"
1,CCN(CC)S(=O)(=O)c1ccc(N2CCN(c3ccccc3OC)CC2)c(N)c1,16.2
2,C/C(=C/c1ccccc1)C(=O)N1CCN(c2ccccc2F)CC1,9.85
3,CCCCCCCCCOC(=O)C(CC(=O)O)N1CCOCC1 (stereo not drawn),6.42
4,Cc1nc(N)nc(OCC(F)(F)C(F)F)c1Br,7.01
5,COc1ccc(C(=O)Nc2ccc(F)cc2F)cc1,-0.387
6,COC(=O)c1sccc1NC(=O)Nc1cccc(F)c1,9.69
7,COc1ccccc1C(=O)NC(=O)COC(=O)c1nc2nc(C)cc(C)n2n1,15.7
8,CCCN1CCN(c2ccc(S(N)(=O)=O)cc2[N+](=O)[O-])CC1,-11
9,CCOC(=O)N1CCN(Cc2nc(N)nc(Nc3ccc(Cl)cc3)n2)CC1,-22.7
10,O=S(=O)(c1cccc(F)c1)N1CCC(CO)(Cc2cccc(F)c2)CC1,-24.8
11,O=C(COC(=O)C1C2CC3OC(=O)C1C3C2)Nc1ccc(Br)cc1 (stereo not drawn),6.73
12,CN1C(=O)NC(NC(=O)C2CCCCC2)(C(F)(F)F)C1=O (stereo not drawn),9.52
13,N#Cc1c2ccccc2nc2ccccc12,9.93
14,O=C(Nc1ccc(Cl)cc1)Nc1ccc(S(=O)(=O)Nc2ncccn2)cc1,9.16
15,Oc1cc2c(cc1O)C1c3ccc(O)c(O)c3OCC1(O)C2 (stereo not drawn),14
16,Cn1cnnc1SCc1ccccc1,4.5
17,O=C(N/N=C/c1cccs1)c1ccc(NC(=O)c2ccccc2Cl)cc1,9.41
18,O=C(Nc1ccc(C(F)(F)F)cc1)c1ccccc1-n1cnnn1,2.21
19,O=C1c2cccc(Cl)c2C(=O)N1c1ccccn1,15.5
20,COc1ccc(NC(=O)CCSc2ccc(C)cc2)cc1,0.943
21,Br.Cc1nc(-c2ccc(C(=O)O)cc2)cs1,13.2
22,CC(=O)c1cc2c(cc1NC(=O)CN1CCCCC1C)OCO2.O=C(O)C(=O)O (stereo not drawn),6.36
23,COC(=O)C1CN(C(=O)C(C)Oc2ccc(C)c(C)c2)c2ccccc2O1 (stereo not drawn),0.293

row,SMILES,"hERG current change (%, negative = inhibition) at 1uM [%]"
1,COc1cccc(NC(=O)CSc2nnc(COc3ccc4c(c3)CCCC4)o2)c1,10.9
2,CCOC(=O)c1c(Nc2ccccc2N)cc(C)nc1C,-6.12
3,CCCN(CCC)C(=O)c1cc2c(=O)[nH]c3ccc(C)cc3c2s1,4.93
4,O=C(CCC(=O)OCc1cccc([N+](=O)[O-])c1)Nc1ccc(F)cc1,5.58
5,COC(=O)C1=C(C)N(CCCC(=O)O)C(=O)NC1c1ccc([N+](=O)[O-])cc1 (stereo not drawn),9.22
6,COC(=O)c1cc(S(=O)(=O)Nc2c(C)cccc2C)cn1C,7.76
7,CCCCN(Cc1ccccc1)c1ncnc2nc[nH]c12,9.29
8,OCCC1CN(Cc2cccn2-c2ccccn2)CCN1C1CCCCC1 (stereo not drawn),-15.6
9,NC(=O)COc1cccc2cccnc12,10.8
10,COc1ccc2oc(=O)c(C(=O)NCc3ccc4c(c3)OCO4)cc2c1,15.6
11,O=C(C[n+]1ccccc1)N/N=C/c1ccc(Cl)cc1.[Cl-],3.27
12,CCCC(=O)Nc1ccc2c(c1)nc(CN1CCN(C(=O)OCC)CC1)n2CC,15.5
13,O=C(NCc1ccccc1)c1cc(-c2ccncc2)nc2ccccc12,-0.566
14,COc1cc(CC(=O)N2C[C@H]3C[C@@H](C2)c2cccc(=O)n2C3)cc(OC)c1OC,9.36
15,O=C(NNC(=O)c1ccc2[nH]c(=O)c(=O)[nH]c2c1)c1cccc(Br)c1,15.5
16,COc1ccc(NC(=O)CSc2nc3ccccc3nc2N2CCCCC2)cc1,12.6
17,C=CCn1cccc(C(=O)Nc2ccc(F)cc2)c1=O,5.42
18,Cc1ccc(S(=O)(=O)N(C)C)cc1NC(=O)COC(=O)CCC1CCCCC1,11.1
19,CN(C)/C=C(\C=O)c1onc(-c2ccccc2Cl)c1C#N,8.9
20,Cn1c(=O)cc(SCC(=O)NCc2cccnc2)c2ccccc21,1.31
21,Cc1c(CCC(=O)O)c(=O)oc2cc3occ(-c4ccccc4)c3cc12,-4.07
22,Cc1cccc(N2CCN(C(=O)CSCc3c(C)noc3C)CC2)c1C,6.62
23,CCN(CC(=O)Nc1c(F)cccc1F)C(=O)c1cccnc1Sc1ccccc1,12.9

row,SMILES,"hERG current change (%, negative = inhibition) at 1uM [%]"
1,CC1CCCCC1NC(=O)c1cc(S(=O)(=O)N2CCCCC2)ccc1N1CCOCC1 (stereo not drawn),11.1
2,CCC1=NN(C(=O)COc2ccccc2)C(O)(c2ccc(Br)cc2)C1 (stereo not drawn),5.87
3,COc1ccc(-c2noc(CCC(=O)N3CCN(c4cccc(C(F)(F)F)c4)CC3)n2)cc1,14.3
4,Cc1cc(C)c(C#N)c(SCc2ccccc2C)n1,14.1
5,COC(=O)c1c(NC(=O)CSc2nnc(C)c(=O)[nH]2)sc(C)c1C,17.9
6,COC(=O)C1CSC(C(=O)OC)N1C(=O)CN1CCN(c2ccc(OC)cc2)CC1 (stereo not drawn),10.7
7,Br.COc1ccc(-c2nc(NC3=NCCCCC3)sc2C)cc1,-1.4
8,Nc1nc(CCl)nc(Nc2cccc3ccccc23)n1,11.6
9,Cn1c(=O)[nH]c(=O)c2c1nc(N1CCNCC1)n2Cc1cccc2ccccc12,0.397
10,Cc1ccc(C)c(NC(=O)C2COc3ccccc3O2)c1 (stereo not drawn),20.8
11,CC(NC(=O)N(Cc1ccccc1)Cc1ccc2c(c1)OCO2)(C(F)(F)F)C(F)(F)F,8.68
12,Cn1c(=O)c(=O)n(C)c2cc(S(=O)(=O)N3CCN(C4CCCCC4)CC3)ccc21,10.9
13,CCCN(CCC)S(=O)(=O)c1ccc(NC(=O)C2CCCO2)cc1 (stereo not drawn),0.598
14,O=C(NCc1n[nH]c(=S)n1-c1cccc(C(F)(F)F)c1)c1ccco1,14
15,CC(C)(C)n1ncc2c(=O)n(CC(=O)Nc3ccc(Cl)cc3)cnc21,8.44
16,CCn1cnc2sc(C(=O)Nc3ccc4c(c3)OCO4)c(C)c2c1=O,12.5
17,c1ccc2c(-c3nc(C4CCCCC4)no3)cc(-c3ccncc3)nc2c1,0.455
18,CCN(CC)CC#CCC(O)(c1ccccc1)c1ccccc1,8.71
19,Cc1nc2ccccn2c1C(=O)NC1CCCC1,13.2
20,Cc1ccc2nc(C)cc(NCCO)c2c1.Cl,7.24
21,COc1ccc(OCC(=O)Nc2ccc3c(c2)C(=O)NC3=O)cc1,12.5
22,Cc1ccc(S(=O)(=O)N2CCN(Cc3cccc(C)c3O)CC2)cc1,16
23,Nc1c(C=C2C=CC(=O)C=C2)c(=O)nc2sc(CC(=O)N3CCCC3)nn12,-1.3

row,SMILES,"hERG current change (%, negative = inhibition) at 1uM [%]"
1,Cc1ccc(C(=O)NCC(=O)OCCCOC(=O)CNC(=O)c2ccc(C)cc2)cc1,7.55
2,Cc1ccc(CNc2ccc3c(c2)ncn3C(C)C)cc1,-15.8
3,CSc1cccc(NC(=S)N2CCC(N(C)C3CCCCC3)CC2)c1,-26.2
4,O=C1CCCN1CC(O)CS(=O)(=O)c1ccc(Cl)cc1 (stereo not drawn),19.1
5,Cc1ccc(-c2nc(CN(C)Cc3ccc4nccnc4c3)c(C)o2)s1,2.63
6,COc1ccc(C2C3=C(CC(C)(C)CC3=O)N(C)C3=C2C(=O)CC(C)(C)C3)cc1OC,19.1
7,NC(=O)C1CC(=O)N(c2ccc(OCc3ccc(Cl)cc3Cl)cc2)C1 (stereo not drawn),4.16
8,O=C(NCC1CCCO1)c1ccc(COCC(F)(F)C(F)F)cc1 (stereo not drawn),2.38
9,Cc1ccc(S(=O)(=O)Cn2nnnc2C(c2ccc(F)cc2)N2CCC(C(N)=O)CC2)cc1 (stereo not drawn),-3.18
10,O=C1C(Cl)=C(NCC2CCCO2)C(=O)N1C1CCCCC1 (stereo not drawn),10
11,O=C(/C=C/c1ccccc1)c1cc(Br)ccc(=O)c1O,0.55
12,CCc1nnc(NC(=O)c2cc(S(=O)(=O)N(CC)CC)ccc2Cl)s1,-1.93
13,COc1cc(C(=O)OCC(=O)Nc2sccc2C(N)=O)cc(OC)c1OC,21
14,CCn1c(=O)cc(SCC(=O)N2CCN(C(=O)c3ccco3)CC2)c2ccccc21,9.43
15,NC(=O)C1CCCN(C(=O)c2ccc(S(=O)(=O)N3CCCCCC3)cc2)C1 (stereo not drawn),6.46
16,CCOC(=O)c1oc2ccccc2c1COC(=O)CNC(=O)c1ccc(C)cc1,-3.59
17,CC(C)OCCCN(C)C1CCN(S(=O)(=O)c2ccc(-c3ccc(=O)[nH]n3)s2)CC1,1.13
18,CCOc1ccc(C(C)=O)cc1N1C(=O)C2C3C=CC(C3)C2C1=O (stereo not drawn),6.73
19,CCc1ccccc1NC(=O)CC(O)(C(=O)OC)C(F)(F)F (stereo not drawn),14
20,NC(=O)C1(NC(=O)[C@@H]2CC3(CC(c4cccc(NC(=O)[C@@H]5CCC(=O)N5)c4)=NO3)CN2C(=O)c2cnccn2)CC1 (stereo partly drawn),13.1
21,CCC1(c2ccccc2)NC(=O)N(CC(=O)Nc2cccnc2Cl)C1=O (stereo not drawn),14.7
